# In PubChem BioAssay AID463173 (ICCB-Longwood Screening Facility, Harvard Medical School, 2010):
# The campaign covered roughly 52,000 compounds. About 4,300 (8.3%) were called active. Cut-off read from the data, not from the text of the source: active = survival mostly below about 52% (no sharp cut-off); inactive = mostly above about 56%. This is one part of the list.
# Tested on: DeltatarO mutant
# Test: growth inhibition of S. aureus wild type versus tarO mutant, primary screen, teichoic acid synthesis inhibitors, RN4220, OD600 (AID 463173)
# Conditions: OD600, 18 h, hits give low values, screened at 18.75 µg/mL (by protocol)
row,SMILES,survival
1,CCC(C)NC(=O)CSc1nc2cc3c(cc2c(=O)n1CCCC(=O)NCc1ccc2c(c1)OCO2)OCO3 (stereo not given),inactive: 79%
2,Cc1ccc(-c2nn3c(=O)cc(CN4CCN(C(=O)Nc5cc(Cl)ccc5C)CC4)nc3s2)cc1,inactive: 113%
3,Cc1cc(C)cc(OCC(=O)N(Cc2ccc(C)o2)C2CCS(=O)(=O)C2)c1 (stereo not given),inactive: 89%
4,CCOC(=O)c1c(C)sc(-c2c(-c3ccc(OC)c(F)c3)[nH]c3c2c(=O)[nH]c(=O)n3C)c1O,inactive: 117%
5,CC(C)Oc1ccc(CNC(=O)c2ccc3nc(Cc4ccccc4)oc3c2)cc1,inactive: 98%
6,CCC(CC)C(=O)Nc1ccc2nc(SCC(=O)N3c4ccccc4CC3C)sc2c1 (stereo not given),inactive: 82%
7,COc1ccc(Cn2nnnc2CN2CCN(c3cc(Cl)ccc3C)CC2)cc1,inactive: 68%
8,CC(C)COc1ccccc1C1CC(=O)Nc2cc3c(cc21)OCO3 (stereo not given),inactive: 101%
9,N#CC1=C(N)OC2=C(C(=O)CCC2)C12CCCC2,inactive: 96%
10,CCCOc1cccc(C(=O)NCc2cccnc2)c1,inactive: 81%
11,Clc1cccc(-n2ncc3c(N4CCN(Cc5ccccc5)CC4)ncnc32)c1,active: 25%
12,COc1cccc(CNC(=O)Cn2ccc3cc(S(=O)(=O)N4CCC(C)CC4)ccc32)c1,inactive: 60%
13,CCc1ccc(NC(=O)CSc2nnc(-c3cc4occc4n3C)n2-c2ccccc2C)cc1,inactive: 85%
14,Cn1c(=O)c2c(-c3ccccc3Br)n(CCc3ccccc3)cc2n(C)c1=O,active: 45%
15,CCCCOc1ccc(C2=NC(c3ccccc3)=Nc3ccc(OC)cc3N2)cc1,inactive: 74%
16,C=CCc1c(C)nc2nc(SCC(=O)Nc3ccc(OCC)cc3)nn2c1C,inactive: 124%
17,COc1ccccc1CNC(=O)Cn1nc(C)c2nn(-c3ccc(Cl)cc3)c(C)c2c1=O,inactive: 63%
18,CC(C)c1ccc(Nc2ncnc3c2c(-c2ccccc2)cn3-c2ccccc2)cc1,inactive: 81%
19,Cc1cc(C)cc(NC(=O)C2(c3cccs3)CCOCC2)c1,inactive: 96%
20,COC(=O)C1=C(C)NC(=O)C1(NC(=O)c1ccccc1C)C(F)(F)F (stereo not given),inactive: 74%
21,COCCNC(=O)CSc1nc(-c2ccc(C)cc2)nc2c1c(=O)n(C)c(=O)n2C,inactive: 91%
22,COc1ccc(CCC(=O)NCc2ccc3c(c2)CCN3C(=O)c2ccc(C)cc2)cc1,inactive: 75%
23,CCOCCCn1c(=N)c(C(=O)NCC2CCCO2)cc2c(=O)n3cc(C)ccc3nc21 (stereo not given),inactive: 80%

row,SMILES,survival
1,COc1cccc(-c2nc(SCC(=O)N3CCc4ccccc43)c3c(=O)n(C)c(=O)n(C)c3n2)c1,inactive: 124%
2,O=S(=O)(c1ccccc1)N1CCc2ccccc21,inactive: 86%
3,O=C(O)c1n[nH]c2c1CCCCC2,inactive: 82%
4,COc1ccc(NC(=O)Cn2ccn(-c3ccccc3)c(=O)c2=O)cc1,inactive: 52%
5,O=C(CCn1[nH]c(=O)c2ccccc2c1=O)NCCO,inactive: 60%
6,Cc1ccc(-n2nc(C)c3c(C(=O)Nc4ccc(Br)c(C)c4)cc(C)nc32)cc1,inactive: 101%
7,O=C(Nc1ccc(Cl)cc1-c1nc2ccccc2s1)c1ccco1,inactive: 74%
8,CCOc1ccc(CNC(=O)CCCn2c(=O)c3cccn3c3ccc(F)cc32)cc1,active: 41%
9,Cn1c(=O)c(=O)n(C)c2cc(NC(=O)c3ccccc3Br)ccc21,inactive: 103%
10,CC(=O)N1CCc2c(sc3c2c(=O)n(Cc2ccccc2)c(=O)n3CC(=O)Nc2ccc(C)c(F)c2)C1,inactive: 102%
11,COc1ccc(CN2C(=O)C(NC(=O)c3ccccc3OC)(C(F)(F)F)N=C2c2ccccc2)cc1 (stereo not given),inactive: 87%
12,CCc1ccc(NC(=O)CCn2cnc3ccccc3c2=O)cc1,inactive: 82%
13,Cc1cc(C)n(CCOc2nonc2N)n1,inactive: 75%
14,CCc1ccc(S(=O)(=O)c2nnn(-c3cccc(C)c3)c2N)cc1,inactive: 60%
15,CCOc1ccccc1CNC(=O)CN1C(=O)CCc2cc(S(=O)(=O)N3CCCCC3)ccc21,inactive: 89%
16,Cc1cccc(OCC(=O)Nc2ccc3nc(Nc4cccc(Cl)c4)cc(C)c3c2)c1,inactive: 115%
17,O=C(NC1CCCCC1)c1cccnc1Nc1ccccc1F,inactive: 78%
18,COc1ccccc1NC(=O)c1c(NC(=O)c2ccccc2Cl)sc2c1CCC2,inactive: 78%
19,CN1CC=C2C(C#N)=C(N)C(C#N)(C#N)C(CCc3ccccc3)C2C1 (stereo not given),inactive: 81%
20,CCC(C(=O)NCCCN(CC)CC)n1ncn2c(cc3occc32)c1=O (stereo not given),inactive: 98%
21,CCOc1ccc(CNC(=O)C2Cc3cc(S(=O)(=O)N4CCCCCC4)ccc3N2C(C)=O)cc1 (stereo not given),inactive: 74%
22,Cc1ccc2c(c1)C1OCCC1C(c1ccncc1)N2 (stereo not given),inactive: 86%
23,CC1OCC(OC(=O)c2ccccc2)CO1 (stereo not given),inactive: 108%

row,SMILES,survival
1,Cc1ccc(NC(=O)Cn2c(-c3nonc3N)nc3ccccc32)cc1Cl,inactive: 77%
2,O=C(CCn1cnc2onc(-c3ccc(F)cc3)c2c1=O)N1CCN(c2cccc(Cl)c2)CC1,inactive: 76%
3,O=C(Nc1ccccc1C(F)(F)F)N1CCN(c2ccc3nnc(-c4ccc(F)cc4)n3n2)CC1,inactive: 58%
4,Cc1ccc2c(c1)c(C)cc(=O)n2CCC(=O)O,inactive: 79%
5,CCc1ccc(S(=O)(=O)c2nnn3c2nc(NCc2ccccc2OC)c2cc(Cl)ccc23)cc1,inactive: 103%
6,Cc1ccccc1-c1noc(-c2ccccc2OCC(=O)Nc2ccccc2[N+](=O)[O-])n1,inactive: 45%
7,CCc1ccc(NC(=O)CN(Cc2ccccc2)S(=O)(=O)c2ccc3nc(C)sc3c2)cc1,inactive: 80%
8,COc1ccc(C2NC(=O)N(C)C3=C2C(=O)N(c2ccc(C)cc2)C3)cc1 (stereo not given),inactive: 74%
9,O=C1C2C(C(=O)N1CC1CCCO1)C1C=CC2C12CC2 (stereo not given),inactive: 80%
10,CCOc1ccc(OCC)c(NC(=O)C2CCN(c3cnccn3)CC2)c1,inactive: 85%
11,O=C(Nc1nnc(S(=O)(=O)N2CCOCC2)s1)c1ccc(F)cc1,inactive: 78%
12,O=C(O)c1cc2ccccc2[nH]c1=O,inactive: 107%
13,N#Cc1cccc(NC(=O)c2ccc3c(c2)N(Cc2cccc(Cl)c2)C(=O)c2ccccc2S3(=O)=O)c1,inactive: 94%
14,O=C(c1ccc(F)cc1F)N1CCC(c2noc(-c3ccc(S(=O)(=O)N4CCCC4)cc3)n2)CC1,inactive: 97%
15,O=C(CNS(=O)(=O)c1ccccc1)NCc1ccccn1,inactive: 63%
16,CC(Nc1ccc(-c2nc(-c3ccccn3)no2)cc1[N+](=O)[O-])c1ccccc1 (stereo not given),active: 19%
17,Cc1ccc(C)c(Cn2nc(C)n3c(cc4cc(C)ccc43)c2=O)c1,inactive: 96%
18,COC(=O)c1ccc(OCC2c3cc(OC)c(OC)cc3CCN2C(=O)c2ccccc2F)cc1 (stereo not given),inactive: 86%
19,Cc1ccc(CNC(=O)c2c(-c3cccc(Br)c3)noc2C)o1,inactive: 87%
20,CCCCCn1c(=N)n(CC(O)COc2cccc(C)c2)c2ccccc21 (stereo not given),inactive: 59%
21,O=C(CSCc1cnn(-c2ccccc2)c1-n1cccc1)Nc1ccc(F)cc1F,inactive: 60%
22,Cc1ccc2oc(=O)n(CCNC(=O)Nc3ccc(C)c(F)c3)c2c1,inactive: 108%
23,Cc1ccccc1CSc1nc2cccnc2n1Cc1ccc(C(=O)NCCc2cccs2)cc1,active: 47%

row,SMILES,survival
1,Cc1ccc(N2CCN(C(=O)c3noc4c3COc3ccc(C)cc3-4)CC2)c(C)c1,inactive: 75%
2,Cc1ccc(CN(C(=O)COc2ccc(Br)cc2)c2ccccn2)o1,inactive: 62%
3,COc1ccc(NC(=O)CSc2nc(-c3ccccc3)nc3c2Cc2c(CO)cnc(C)c2O3)cc1Cl,inactive: 69%
4,COc1ccc(Cl)cc1N(C)C(=O)C(=O)Nc1ccc2nc3n(c(=O)c2c1)CCCCC3,inactive: 51%
5,Cc1ccc(C)c(N2CCN(C(=O)C(C)n3c(C)c4cnn(-c5ccccc5)c(=O)c4c3C)CC2)c1 (stereo not given),inactive: 64%
6,COc1ccc(-c2noc(CCC(=O)NCc3ccc(OC)cc3OC)n2)cc1,inactive: 119%
7,CCCN(CCC)CC(O)Cn1cc(/C=C/C(=O)c2ccc(OCC)cc2)c2ccccc21 (stereo not given),active: 11%
8,CCn1cc(C(=O)N(C)Cc2ccccc2)c(=O)c2cc(S(=O)(=O)N3CCCCCC3)ccc21,inactive: 70%
9,COC(=O)c1ccc(Cl)c(NC(=O)C2CCN(S(=O)(=O)Cc3ccccc3)CC2)c1,inactive: 104%
10,Cc1cccc(C(=O)Nc2cccc(OCc3cc(=O)n4c(C)csc4n3)c2)c1,inactive: 65%
11,CCc1ccc(NC(=O)c2cc3c(=O)n(Cc4cccnc4)ccc3nc2C)cc1,inactive: 101%
12,CC(C)c1nn2c(=O)cc(COC(=O)CNC(=O)c3ccccc3)nc2s1,inactive: 129%
13,COc1ccc(Nc2nc(N)nc(CSc3nc4cc(OC)ccc4s3)n2)cc1,active: 41%
14,COc1ccc(NC(=O)Cc2csc(COc3cccc(C)c3)n2)c(OC)c1,inactive: 90%
15,CCOC(=O)c1c(-c2cccs2)csc1NC(=O)c1ccccc1,inactive: 103%
16,CCCc1nn2c(=O)cc(COC(=O)c3ccccc3NC(=O)C3CCCCC3)nc2s1,inactive: 78%
17,O=C(CCCC(=O)Nc1nccs1)Nc1nccs1,inactive: 83%
18,CCC(=O)N1CCc2cc(S(=O)(=O)CCC(=O)NCc3ccccc3Cl)ccc21,inactive: 100%
19,COC(=O)c1c(C)sc(-c2c(-c3ccc(F)cc3)[nH]c3[nH]c(=O)[nH]c(=O)c23)c1O,inactive: 116%
20,Cc1ccc(NC(=O)C2CCN(S(=O)(=O)c3cccs3)CC2)cc1,active: 40%
21,CCOc1cccc(CC(=O)N2CCc3c([nH]c4ccccc34)C2c2ccc(OC)cc2)c1OCC (stereo not given),inactive: 86%
